According to the supplement of paper PMC8728848:
This is one part of the list.

Assays:
Experiment in all cases: glycan array binding signal (z-score within array); higher = stronger binding
Conditions in all cases: glycan notation: IUPAC condensed, linker removed
[1] = target: Fuc(a1-2)Gal(b1-4)GlcNAc(b1-3)Gal(b1-4)GlcNAc(b1-3)Gal(b1-4)GlcNAc
Method in brief: (§1)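 The binding signal is a Z-score computed within each array and averaged over linkers. Arrays of the same protein sequence at different concentrations or buffers were also averaged together. Data originate from 3228 arrays in the Consortium for Functional Glycomics database, kept only where the protein sequence was available.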

[2] = target: Fuc(a1-2)Gal(b1-4)GlcNAc(b1-3)GalNAc
Method in brief: as §1

[3] = target: Fuc(a1-2)Gal(b1-4)GlcNAc(b1-3)[Fuc(a1-2)Gal(b1-4)GlcNAc(b1-6)]GalNAc
Method in brief: as §1

[4] = target: Fuc(a1-2)Gal(b1-4)GlcNAc(b1-3)[Fuc(a1-3)[Gal(b1-4)]GlcNAc(b1-6)]Gal(b1-4)Glc
Method in brief: as §1

[5] = target: Fuc(a1-2)Gal(b1-4)GlcNAc(b1-6)GalNAc
Method in brief: as §1

[6] = target: Fuc(a1-2)Gal(b1-4)GlcNAc6S
Method in brief: as §1

[7] = target: Fuc(a1-2)Gal(b1-4)[Fuc(a1-3)]GlcNAc
Method in brief: as §1

[8] = target: Fuc(a1-2)Gal(b1-4)[Fuc(a1-3)]GlcNAc(b1-2)Man(a1-3)[Fuc(a1-2)Gal(b1-4)[Fuc(a1-3)]GlcNAc(b1-2)Man(a1-6)]Man(b1-4)GlcNAc(b1-4)[Fuc(a1-6)]GlcNAc
Method in brief: as §1

[9] = target: Fuc(a1-2)Gal(b1-4)[Fuc(a1-3)]GlcNAc(b1-2)[Fuc(a1-2)Gal(b1-4)[Fuc(a1-3)]GlcNAc(b1-4)]Man(a1-3)[Fuc(a1-2)Gal(b1-4)[Fuc(a1-3)]GlcNAc(b1-2)Man(a1-6)]Man(b1-4)GlcNAc(b1-4)GlcNAc
Method in brief: as §1

[10] = target: Fuc(a1-2)Gal(b1-4)[Fuc(a1-3)]GlcNAc(b1-3)Gal(b1-4)[Fuc(a1-3)]GlcNAc
Method in brief: as §1

[11] = target: Fuc(a1-2)Gal(b1-4)[Fuc(a1-3)]GlcNAc(b1-3)Gal(b1-4)[Fuc(a1-3)]GlcNAc(b1-3)Gal(b1-4)[Fuc(a1-3)]GlcNAc
Method in brief: as §1

[12] = target: Fuc(a1-2)Gal(b1-4)[Fuc(a1-3)]GlcNAc(b1-3)GalNAc
Method in brief: as §1

[13] = target: Fuc(a1-2)Gal(b1-4)[Fuc(a1-3)]GlcNAc(b1-3)[Neu5Ac(a2-6)Gal(b1-4)GlcNAc(b1-6)]Gal(b1-4)Glc
Method in brief: as §1

[14] = target: Fuc(a1-2)Gal3S(b1-4)GlcNAc
Method in brief: as §1

[15] = target: Fuc(a1-2)Gal6S(b1-3)GlcNAc
Method in brief: as §1

[16] = target: Fuc(a1-2)Gal6S(b1-3)GlcNAc6S
Method in brief: as §1

Fuc(a1-2)Gal6S(b1-4)Glc = target: Fuc(a1-2)Gal6S(b1-4)Glc
Method in brief: as §1

[17] = target: Fuc(a1-2)Gal6S(b1-4)Glc6S
Method in brief: as §1

Fuc(a1-2)[Gal(a1-3)]Gal = target: Fuc(a1-2)[Gal(a1-3)]Gal
Method in brief: as §1

[18] = target: Fuc(a1-2)[Gal(a1-3)]Gal(b1-3)GalNAc
Method in brief: as §1

[19] = target: Fuc(a1-2)[Gal(a1-3)]Gal(b1-3)GalNAc(b1-3)Gal(a1-4)Gal(b1-4)Glc
Method in brief: as §1

[20] = target: Fuc(a1-2)[Gal(a1-3)]Gal(b1-3)GlcNAc
Method in brief: as §1

[21] = target: Fuc(a1-2)[Gal(a1-3)]Gal(b1-3)GlcNAc(b1-2)Man(a1-3)[Fuc(a1-2)[Gal(a1-3)]Gal(b1-3)GlcNAc(b1-2)Man(a1-6)]Man(b1-4)GlcNAc(b1-4)GlcNAc
Method in brief: as §1

[22] = target: Fuc(a1-2)[Gal(a1-3)]Gal(b1-3)GlcNAc(b1-2)Man(a1-3)[Fuc(a1-2)[Gal(a1-3)]Gal(b1-3)GlcNAc(b1-2)Man(a1-6)]Man(b1-4)GlcNAc(b1-4)[Fuc(a1-6)]GlcNAc
Method in brief: as §1

[23] = target: Fuc(a1-2)[Gal(a1-3)]Gal(b1-3)GlcNAc(b1-3)GalNAc
Method in brief: as §1

[24] = target: Fuc(a1-2)[Gal(a1-3)]Gal(b1-3)GlcNAc(b1-6)GalNAc
Method in brief: as §1

[25] = target: Fuc(a1-2)[Gal(a1-3)]Gal(b1-4)Glc
Method in brief: as §1

[26] = target: Fuc(a1-2)[Gal(a1-3)]Gal(b1-4)GlcNAc
Method in brief: as §1

[27] = target: Fuc(a1-2)[Gal(a1-3)]Gal(b1-4)GlcNAc(b1-2)Man
Method in brief: as §1

[28] = target: Fuc(a1-2)[Gal(a1-3)]Gal(b1-4)GlcNAc(b1-2)Man(a1-3)[Fuc(a1-2)[Gal(a1-3)]Gal(b1-4)GlcNAc(b1-2)Man(a1-6)]Man(b1-4)GlcNAc(b1-4)GlcNAc
Method in brief: as §1

[29] = target: Fuc(a1-2)[Gal(a1-3)]Gal(b1-4)GlcNAc(b1-2)Man(a1-3)[Fuc(a1-2)[Gal(a1-3)]Gal(b1-4)GlcNAc(b1-2)Man(a1-6)]Man(b1-4)GlcNAc(b1-4)[Fuc(a1-6)]GlcNAc
Method in brief: as §1

[30] = target: Fuc(a1-2)[Gal(a1-3)]Gal(b1-4)GlcNAc(b1-3)GalNAc
Method in brief: as §1

[31] = target: Fuc(a1-2)[Gal(a1-3)]Gal(b1-4)GlcNAc(b1-3)[Fuc(a1-2)[Gal(a1-3)]Gal(b1-4)GlcNAc(b1-6)]GalNAc
Method in brief: as §1

[32] = target: Fuc(a1-2)[Gal(a1-3)]Gal(b1-4)GlcNAc(b1-6)GalNAc
Method in brief: as §1

[33] = target: Fuc(a1-2)[Gal(a1-3)]Gal(b1-4)[Fuc(a1-3)]Glc
Method in brief: as §1

[34] = target: Fuc(a1-2)[Gal(a1-3)]Gal(b1-4)[Fuc(a1-3)]GlcNAc
Method in brief: as §1

[35] = target: Fuc(a1-2)[Gal(a1-3)]Gal(b1-4)[Fuc(a1-3)]GlcNAc(b1-3)GalNAc
Method in brief: as §1

B1: Clec49 (Caenorhabditis elegans) (protein)
chain: MTRLTLLLFGLLGAATAQTCNTGGIYNEQFNRCYQYFTAPAQFSFAEQQCNLLGGHLASVQNGQENALLQSNAANSFKRSNYSDYWIGATDLETSGTWKWTDPSVTFDYSNWQLGEPQSGSDCAIQDKGDGTWSAIGCTSYRPYVCVTPVIMTATCPPITTPIPTTCPTPAPCPIKQCVPSCDQGWTYFSPTDFCYRVYHGEKFNDAEASCVLLGGHLASIHSLTENTFVNNIASCGIKEGKYEHLAWIGMRKVGQDWVWTDGTPSDYFNWAPKQPDNPKKELCVQTAPDLSHDKWYENWNNLECNEVMRAYICKKASIHN
For B1, the “glycan array binding signal (z-score)” value [1] was -0.191, the “glycan array binding signal (z-score)” value [2] was -0.223 and the “glycan array binding signal (z-score)” value [3] was 0.84. The “glycan array binding signal (z-score)” value [4] was -0.313, the “glycan array binding signal (z-score)” value [5] was -0.314 and the “glycan array binding signal (z-score)” value [6] was -0.737. For the same binder, the “glycan array binding signal (z-score)” value [7] was -0.005, the “glycan array binding signal (z-score)” value [8] was 0.368 and the “glycan array binding signal (z-score)” value [9] was 6.67. The “glycan array binding signal (z-score)” value [10] was -0.045, the “glycan array binding signal (z-score)” value [11] was -0.819 and the “glycan array binding signal (z-score)” value [12] was -0.242. For the same binder, the “glycan array binding signal (z-score)” value [13] was -0.336, the “glycan array binding signal (z-score)” value [14] was 0.166 and the “glycan array binding signal (z-score)” value [15] was -0.543. The “glycan array binding signal (z-score)” value [16] was 1.29, the “glycan array binding signal (z-score)” value (Fuc(a1-2)Gal6S(b1-4)Glc) was -0.677 and the “glycan array binding signal (z-score)” value [17] was -0.875. For the same binder, the “glycan array binding signal (z-score)” value (Fuc(a1-2)[Gal(a1-3)]Gal) was -0.102, the “glycan array binding signal (z-score)” value [18] was -0.431 and the “glycan array binding signal (z-score)” value [19] was 0.061. The “glycan array binding signal (z-score)” value [20] was -0.288, the “glycan array binding signal (z-score)” value [21] was 2.31 and the “glycan array binding signal (z-score)” value [22] was 0.255. For the same binder, the “glycan array binding signal (z-score)” value [23] was 0.411, the “glycan array binding signal (z-score)” value [24] was -0.167 and the “glycan array binding signal (z-score)” value [25] was 0.094. The “glycan array binding signal (z-score)” value [26] was 0.248, the “glycan array binding signal (z-score)” value [27] was -0.467 and the “glycan array binding signal (z-score)” value [28] was -0.065. For the same binder, the “glycan array binding signal (z-score)” value [29] was -0.622, the “glycan array binding signal (z-score)” value [30] was -0.585 and the “glycan array binding signal (z-score)” value [31] was 0.013. The “glycan array binding signal (z-score)” value [32] was -0.168, the “glycan array binding signal (z-score)” value [33] was -0.454 and the “glycan array binding signal (z-score)” value [34] was -0.467. The “glycan array binding signal (z-score)” value [35] was 1.42.
